Data published in ChEMBL document CHEMBL5308541, “MAIP: An Open-Source Tool to Enrich High-Throughput Screening Output and Identify Novel, Druglike Molecules with Antimalarial Activity” (ACS Med Chem Lett, 2023).
Hit rate of the full screen: of about 150,000 compounds, about 540 (0.36%) showed an effect of 50% or more. This is one part of the list.

system: Plasmodium falciparum; assay: Primary screen in NF54 nanoGlo assay, in single point, at 2uM, 72h; a lower Z score goes with more inhibition; assay type: functional, Erythrocyte; settings: timepoint 72 hour

Going from `CCNc1ncc(CN2CCN(Cc3cccc(C(F)(F)F)c3)CC2)cn1` to `c1coc(-c2ncc(CN3CCCC[C@@H]3CCN3CCCC3)cn2)c1`, the “% Inhibition” value falls from 1% to -7%.

Going from `CC(O)CC1COCCN1CCCN1CCN(C(C)C)CC1` (centres undefined) to `Cc1cc(C(=O)N2CCN(CCN3CCCOCC3)CC2)nn1-c1ccccc1`, the “% Inhibition” value falls from 2% to -1%.

Going from `FC(F)(F)CCc1ccnc(NCCN2CCNCC2)n1` to `OC1(CNc2nccc(N3CCCC3)n2)CCCCCC1`, the “% Inhibition” value falls from 1% to 0%.

First: Cc1cccc(NC[C@H]2CCN(c3nc(N)c4cnn(C)c4n3)C2)n1
Second: CN1CCC[C@@H](CNc2ccnc3ccncc23)[C@@H]1c1ccnn1C
The “% Inhibition” value of the first is lower: 2% for the first, 10% for the second.

Compared with `CC(C)(C(=O)O)n1cc(NC(=O)Cc2ccc3cn[nH]c3c2)cn1`, `c1ccc(-c2n[nH]cc2CNc2ccc3[nH]ncc3c2)cc1` is lower in “% Inhibition” value: -2% for the first, -6% for the second.

First: C[C@H]1[C@@H](c2nnc(C=Cc3ccnc4ccccc34)o2)CCCN1C
Second: COc1cc(OC2CC2)ccc1-c1nnc(-c2c(C)nc3ccccn23)o1
The “% Inhibition” value of the first is higher: 2% for the first, -7% for the second.

Compared with `C[C@](O)(COc1ccc2c(c1)CCCNC2=O)C(F)(F)F`, `CN1CCC(c2nc(-c3ccc(Oc4ccccc4C(F)(F)F)nc3)no2)CC1` is higher in “% Inhibition” value: -6% for the first, 1% for the second.

First: CCN1CCN(CC(C)CNC(=O)C2CCCN(C(=O)c3cc(C)cc(C)c3)C2)CC1 (centres undefined)
Second: O=C(c1ccoc1)N1CCCN(S(=O)(=O)Cc2ccc(Cl)cc2F)CC1
The “% Inhibition” value of the first is lower: -8% for the first, 3% for the second.

First: C[C@H](O)c1nc2cc(-c3cc(N)nc4[nH]ccc34)ccc2[nH]1
Second: Cc1ccc2nc(C)cc(C(=O)N[C@@H](CCN(C)C)c3ccccc3)c2c1
The “% Inhibition” value of the first is higher: -1% for the first, -6% for the second.

First: CCc1ccc(CN(C)C(=O)C2CC(c3ccccc3)N3CCCC23)nc1 (centres undefined)
Second: CCOC(=O)Cc1c(CN2CCN(C)CC2)c2ccccc2n1Cc1ccccc1
The “% Inhibition” value of the first is higher: -3% for the first, -4% for the second.

First: Cc1ccc(NCCCNC2CCN(c3ccc4c(c3)OCO4)CC2)nc1
Second: Cc1nccn1-c1ccc(N2CCC(N(C)CCN3CCOCC3)CC2)cc1
The “% Inhibition” value of the first is lower: -7% for the first, -5% for the second.

First: O=S(=O)(N1CCCC1)N1CCOC2(CCN(CCCn3cccn3)CC2)C1
Second: CCc1cc(N2CCC(NCC3(N4CCOCC4)CCCCC3)CC2)nc(C)n1
The “% Inhibition” value of the first is lower: -3% for the first, 4% for the second.

First: NC(=O)[C@@H]1CN(C(=O)c2cc(F)c(F)c(F)c2F)CCN1C1CC1
Second: Cn1cnc2cncc(C(=O)NC3CCC(N4CCNCC4)CC3)c21 (centres undefined)
The “% Inhibition” value of the first is higher: -3% for the first, -8% for the second.

First: CCOc1ccc2nc(NCc3c(C)nn(C)c3Cl)sc2c1
Second: COc1ccc(C(=O)COc2ccc(Cl)c3cccnc23)c(OC)c1
The “% Inhibition” value of the first is higher: -13% for the first, -17% for the second.

Going from `CNc1cc(N2CCCC2CNC2CCCc3ccc(O)cc32)ncn1` (centres undefined) to `CCc1c[nH]c2ncnc(N3CCC(Oc4cnccn4)CC3)c12`, the “% Inhibition” value falls from -4% to -10%.

Compared with `CCN(CC)CCN1CCC(N2CCS(=O)(=O)CC2)CC1`, `CN(CC1CCN(CCc2ccc(F)cc2)CC1)C1CCN(Cc2ccco2)CC1` is higher in “% Inhibition” value: 3% for the first, 17% for the second.

Going from `COc1ccc(N2CCN(C(=O)c3cc4cccnc4n(Cc4ccccc4F)c3=O)CC2)cc1` to `Cc1nc2c(C)cccn2c(=O)c1CCN1CCCc2c(c3ccccc3n2Cc2ccccc2)C1`, the “% Inhibition” value rises from -4% to 2%.

`CCc1cc(NC2CCN(C[C@@H](O)CC)CC2)nc(-c2ccccn2)n1` and `CC1CCC(Oc2cc(CNCc3cnc(N4CCOCC4)nc3)ccn2)CC1` (centres undefined) are the same in “% Inhibition” value: 2% for the first, 2% for the second.

`COc1cc2cc(c1OC)-c1cncc(c1)C(=O)NC1(CC1)C(=O)N[C@H](CC(C)C)C(=O)NCCNC2` and `Nc1cc(-c2ccc(C(=O)N3CCCC4(CCNCC4)CC3)cc2)ncn1` are the same in “% Inhibition” value: -2% for the first, -2% for the second.

Compared with `Cc1nc(Nc2ccc(NC(=O)Cc3noc4ccccc34)cc2)cc(N2CCCC2)n1`, `CN1CCCN(c2ccc(-c3noc([C@H]4CCCOCC4)n3)cc2Cl)CC1` is higher in “% Inhibition” value: -6% for the first, 3% for the second.

Going from `Cc1[nH]cnc1CN(CCO)C(=O)CCCc1ccccc1` to `CCC1CN(c2nnnn2Cc2ccc(C(N)=O)cc2)CC(CC)O1` (centres undefined), the “% Inhibition” value falls from -1% to -4%.

Compared with `CCNc1ncc(CN2CCN(Cc3cccc(C(F)(F)F)c3)CC2)cn1`, `c1coc(-c2ncc(CN3CCCC[C@@H]3CCN3CCCC3)cn2)c1` is higher in Z score: -0.25 for the first, 1.23 for the second.

First: CC(O)CC1COCCN1CCCN1CCN(C(C)C)CC1 (centres undefined)
Second: Cc1cc(C(=O)N2CCN(CCN3CCCOCC3)CC2)nn1-c1ccccc1
The Z score of the first is lower: -0.47 for the first, 0.23 for the second.

Compared with `FC(F)(F)CCc1ccnc(NCCN2CCNCC2)n1`, `OC1(CNc2nccc(N3CCCC3)n2)CCCCCC1` is higher in Z score: -0.3 for the first, 0.07 for the second.

First: Cc1cccc(NC[C@H]2CCN(c3nc(N)c4cnn(C)c4n3)C2)n1
Second: CN1CCC[C@@H](CNc2ccnc3ccncc23)[C@@H]1c1ccnn1C
The Z score of the first is higher: -0.39 for the first, -1.79 for the second.

First: CC(C)(C(=O)O)n1cc(NC(=O)Cc2ccc3cn[nH]c3c2)cn1
Second: c1ccc(-c2n[nH]cc2CNc2ccc3[nH]ncc3c2)cc1
The Z score of the first is lower: 0.3 for the first, 0.98 for the second.

Compared with `C[C@H]1[C@@H](c2nnc(C=Cc3ccnc4ccccc34)o2)CCCN1C`, `COc1cc(OC2CC2)ccc1-c1nnc(-c2c(C)nc3ccccn23)o1` is higher in Z score: -0.29 for the first, 1.59 for the second.

Compared with `C[C@](O)(COc1ccc2c(c1)CCCNC2=O)C(F)(F)F`, `CN1CCC(c2nc(-c3ccc(Oc4ccccc4C(F)(F)F)nc3)no2)CC1` is lower in Z score: 0.9 for the first, -0.17 for the second.

Compared with `CCN1CCN(CC(C)CNC(=O)C2CCCN(C(=O)c3cc(C)cc(C)c3)C2)CC1` (centres undefined), `O=C(c1ccoc1)N1CCCN(S(=O)(=O)Cc2ccc(Cl)cc2F)CC1` is lower in Z score: 1.49 for the first, -0.43 for the second.

First: C[C@H](O)c1nc2cc(-c3cc(N)nc4[nH]ccc34)ccc2[nH]1
Second: Cc1ccc2nc(C)cc(C(=O)N[C@@H](CCN(C)C)c3ccccc3)c2c1
The Z score of the first is lower: 0.16 for the first, 0.98 for the second.

First: CCc1ccc(CN(C)C(=O)C2CC(c3ccccc3)N3CCCC23)nc1 (centres undefined)
Second: CCOC(=O)Cc1c(CN2CCN(C)CC2)c2ccccc2n1Cc1ccccc1
The Z score of the first is lower: 0.58 for the first, 0.71 for the second.

Going from `Cc1ccc(NCCCNC2CCN(c3ccc4c(c3)OCO4)CC2)nc1` to `Cc1nccn1-c1ccc(N2CCC(N(C)CCN3CCOCC3)CC2)cc1`, the Z score falls from 1.18 to 0.79.

First: O=S(=O)(N1CCCC1)N1CCOC2(CCN(CCCn3cccn3)CC2)C1
Second: CCc1cc(N2CCC(NCC3(N4CCOCC4)CCCCC3)CC2)nc(C)n1
The Z score of the first is higher: 0.39 for the first, -0.73 for the second.

First: NC(=O)[C@@H]1CN(C(=O)c2cc(F)c(F)c(F)c2F)CCN1C1CC1
Second: Cn1cnc2cncc(C(=O)NC3CCC(N4CCNCC4)CC3)c21 (centres undefined)
The Z score of the first is lower: 0.48 for the first, 1.18 for the second.

First: CCOc1ccc2nc(NCc3c(C)nn(C)c3Cl)sc2c1
Second: COc1ccc(C(=O)COc2ccc(Cl)c3cccnc23)c(OC)c1
The Z score of the first is lower: 2.24 for the first, 2.64 for the second.

Compared with `CNc1cc(N2CCCC2CNC2CCCc3ccc(O)cc32)ncn1` (centres undefined), `CCc1c[nH]c2ncnc(N3CCC(Oc4cnccn4)CC3)c12` is higher in Z score: 0.7 for the first, 2.03 for the second.

Going from `CCN(CC)CCN1CCC(N2CCS(=O)(=O)CC2)CC1` to `CN(CC1CCN(CCc2ccc(F)cc2)CC1)C1CCN(Cc2ccco2)CC1`, the Z score falls from -0.62 to -2.94.

Compared with `COc1ccc(N2CCN(C(=O)c3cc4cccnc4n(Cc4ccccc4F)c3=O)CC2)cc1`, `Cc1nc2c(C)cccn2c(=O)c1CCN1CCCc2c(c3ccccc3n2Cc2ccccc2)C1` is lower in Z score: 0.63 for the first, -0.4 for the second.

Going from `CCc1cc(NC2CCN(C[C@@H](O)CC)CC2)nc(-c2ccccn2)n1` to `CC1CCC(Oc2cc(CNCc3cnc(N4CCOCC4)nc3)ccn2)CC1` (centres undefined), the Z score falls from -0.35 to -0.54.

Compared with `COc1cc2cc(c1OC)-c1cncc(c1)C(=O)NC1(CC1)C(=O)N[C@H](CC(C)C)C(=O)NCCNC2`, `Nc1cc(-c2ccc(C(=O)N3CCCC4(CCNCC4)CC3)cc2)ncn1` is lower in Z score: 0.41 for the first, 0.35 for the second.

Going from `Cc1nc(Nc2ccc(NC(=O)Cc3noc4ccccc34)cc2)cc(N2CCCC2)n1` to `CN1CCCN(c2ccc(-c3noc([C@H]4CCCOCC4)n3)cc2Cl)CC1`, the Z score falls from 0.98 to -0.56.

First: Cc1[nH]cnc1CN(CCO)C(=O)CCCc1ccccc1
Second: CCC1CN(c2nnnn2Cc2ccc(C(N)=O)cc2)CC(CC)O1 (centres undefined)
The Z score of the first is lower: 0.14 for the first, 0.67 for the second.
